Reference: patent US20250387474A1 (MEDICENNA THERAPEUTICS, published 2025)
Like-named read-outs stand apart in the source and are kept apart here.

How the values were obtained:
[1] = target: T1, IL-2Rβγ on Jurkat IL2Rβγ bioassay cells (UniProt P14784 27-551; P31785 23-369, limits assumed); assay: cell-based or functional assay
T1 sequence (looked up) 1: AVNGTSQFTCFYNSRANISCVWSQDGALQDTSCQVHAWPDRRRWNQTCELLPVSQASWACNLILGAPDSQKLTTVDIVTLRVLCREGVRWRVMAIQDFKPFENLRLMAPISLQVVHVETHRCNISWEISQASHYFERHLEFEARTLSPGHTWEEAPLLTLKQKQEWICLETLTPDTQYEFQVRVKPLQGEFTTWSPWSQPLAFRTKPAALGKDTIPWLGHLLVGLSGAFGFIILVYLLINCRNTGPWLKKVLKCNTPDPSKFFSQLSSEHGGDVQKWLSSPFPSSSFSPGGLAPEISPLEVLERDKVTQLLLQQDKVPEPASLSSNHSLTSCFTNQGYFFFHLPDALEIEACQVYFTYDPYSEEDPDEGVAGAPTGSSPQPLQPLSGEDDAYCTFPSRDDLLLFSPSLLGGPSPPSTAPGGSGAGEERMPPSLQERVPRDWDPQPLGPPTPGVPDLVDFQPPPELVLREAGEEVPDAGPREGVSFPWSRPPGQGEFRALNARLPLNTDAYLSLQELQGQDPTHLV
T1 sequence (looked up) 2: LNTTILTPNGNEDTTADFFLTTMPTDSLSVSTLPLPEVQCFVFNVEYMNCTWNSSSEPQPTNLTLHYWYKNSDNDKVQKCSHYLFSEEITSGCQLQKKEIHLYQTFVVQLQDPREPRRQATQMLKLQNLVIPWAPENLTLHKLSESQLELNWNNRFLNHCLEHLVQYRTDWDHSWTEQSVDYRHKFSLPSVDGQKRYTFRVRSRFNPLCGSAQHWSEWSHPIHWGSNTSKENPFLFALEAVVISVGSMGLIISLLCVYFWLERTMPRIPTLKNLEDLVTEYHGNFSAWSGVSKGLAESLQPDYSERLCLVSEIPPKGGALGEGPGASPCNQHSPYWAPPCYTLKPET

human IL-2R alpha (CD25) [2] = target: T2, human IL-2R alpha (CD25) (human, UniProt P01589 22-213); assay: BLI (Octet)
T2 construct: also called IL-2Rα; IL2Rα
T2 sequence (looked up): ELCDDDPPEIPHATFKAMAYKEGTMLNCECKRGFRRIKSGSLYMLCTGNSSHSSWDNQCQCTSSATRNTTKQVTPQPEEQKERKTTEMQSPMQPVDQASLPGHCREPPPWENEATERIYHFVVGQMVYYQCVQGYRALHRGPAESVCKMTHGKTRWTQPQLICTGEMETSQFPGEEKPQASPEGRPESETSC

human IL-13Rα2 [3] = target: T3, human IL-13Rα2 (human, UniProt Q14627 27-343); assay: SPR (Example 5), human receptor
T3 construct: also called Human IL-13 R alpha 2 Protein; IL-13 decoy receptor
T3 sequence (looked up): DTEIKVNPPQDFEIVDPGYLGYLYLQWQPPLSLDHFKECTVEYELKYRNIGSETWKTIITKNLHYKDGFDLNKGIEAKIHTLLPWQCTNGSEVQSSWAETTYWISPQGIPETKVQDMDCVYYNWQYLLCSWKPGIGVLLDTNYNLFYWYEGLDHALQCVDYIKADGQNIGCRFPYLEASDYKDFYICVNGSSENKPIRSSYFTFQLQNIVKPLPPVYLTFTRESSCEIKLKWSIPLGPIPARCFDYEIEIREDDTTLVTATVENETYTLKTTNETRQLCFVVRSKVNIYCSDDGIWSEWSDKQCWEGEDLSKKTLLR

human IL-2R beta (CD122) [4] = target: T4, human IL-2R beta (CD122) (human, UniProt P14784 27-239); assay: SPR (Example 5), human receptor
T4 construct: also called IL-2Rβ; IL2Rβ
T4 sequence (looked up): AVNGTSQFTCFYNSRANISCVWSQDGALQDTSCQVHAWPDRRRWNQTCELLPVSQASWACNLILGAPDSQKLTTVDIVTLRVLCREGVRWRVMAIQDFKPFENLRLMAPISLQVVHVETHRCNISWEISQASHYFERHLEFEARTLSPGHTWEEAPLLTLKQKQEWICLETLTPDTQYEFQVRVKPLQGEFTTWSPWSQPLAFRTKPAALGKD

human IL-13Rα1 [5] = target: T5, human IL-13Rα1 (human, UniProt P78552 22-343); assay: SPR (Example 5), human receptor
T5 construct: also called Human IL-13 R alpha 1 Protein; IL-13 functional receptor
T5 sequence (looked up): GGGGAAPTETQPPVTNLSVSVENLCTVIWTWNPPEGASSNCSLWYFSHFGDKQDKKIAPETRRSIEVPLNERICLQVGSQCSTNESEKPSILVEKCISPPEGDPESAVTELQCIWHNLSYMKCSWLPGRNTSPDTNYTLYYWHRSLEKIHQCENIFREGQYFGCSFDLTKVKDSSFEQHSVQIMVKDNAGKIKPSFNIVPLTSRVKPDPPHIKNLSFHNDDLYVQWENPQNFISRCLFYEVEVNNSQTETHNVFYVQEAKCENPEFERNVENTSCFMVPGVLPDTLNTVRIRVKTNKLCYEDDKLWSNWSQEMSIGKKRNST

human IL-2R alpha (CD25) [6] = target: T2, human IL-2R alpha (CD25); assay: SPR (Example 5), human receptor
human IL-13Rα2 [7] = target: T3, human IL-13Rα2; assay: SPR (Example 5), human receptor; remark: listed apart in the source
human IL-2R beta (CD122) [8] = target: T4, human IL-2R beta (CD122); assay: SPR (Example 5), human receptor; remark: listed apart in the source
human IL-13Rα2 [9] = target: T3, human IL-13Rα2; assay: SPR (Example 5), receptor concentrations 1.9 to 250 nM
[10] = target: human CD3 epitopes (CD3epsilon/delta) (human, UniProt P07766 23-126; P04234 22-105); assay: SPR (Example 5) on human CD3 epsilon delta heterodimer
[11] = target: T6, mouse CD3 epitopes (CD3epsilon/delta) (mouse, UniProt P22646 22-108; P04235 22-105); assay: SPR (Example 5), concentrations 7.8 to 1000 nM
T6 sequence (looked up) 1: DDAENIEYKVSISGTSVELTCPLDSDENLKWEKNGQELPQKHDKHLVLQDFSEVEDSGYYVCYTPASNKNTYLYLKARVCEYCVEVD
T6 sequence (looked up) 2: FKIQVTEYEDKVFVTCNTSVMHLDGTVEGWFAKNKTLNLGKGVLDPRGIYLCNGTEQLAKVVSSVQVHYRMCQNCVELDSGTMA

human IL-13Rα1 [12] = target: T5, human IL-13Rα1; assay: SPR, construct captured on anti-human IgG (Fc) antibody on a CM5 chip, human receptor as analyte
human IL-13Rα2 [13] = target: T3, human IL-13Rα2; assay: as above
[14] = target: T6, mouse CD3 epitopes (CD3epsilon/delta); assay: SPR (Example 5) on mouse CD3 epsilon delta heterodimer, sensorgrams in Figure 44B

UniProt P07766, sequence (P07766 23-126, stated change not applied, chain 1 of 2): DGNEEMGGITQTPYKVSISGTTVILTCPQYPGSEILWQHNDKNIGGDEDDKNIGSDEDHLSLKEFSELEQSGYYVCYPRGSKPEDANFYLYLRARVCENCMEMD
UniProt P07766, sequence (P04234 22-105, stated change not applied, chain 2 of 2, further chain): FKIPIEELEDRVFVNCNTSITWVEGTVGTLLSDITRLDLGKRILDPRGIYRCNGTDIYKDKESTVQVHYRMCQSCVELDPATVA

B1: MDNA19 (MDNA109FEAA-Fc, 2:1) (Fc fusion)
chain: APTSSSTKKTQLQLEHLLLDLQMILNGINNYKNPKLTRMLTAKFYMPKKATELKHLQCLEEALKPLEEVLNLAQSKNFHFDPRDVVSNINVFVLELKGSETTFMCEYADETATIVEFLNRWITFCQSIISTLTGGGGSGGGGSGGGGS[sequence of human IgG1 Fc with changes not given]
notes: also called MDNA19/MDNA109FEAA^C125-Fc
Jurkat IL2Rβγ bioassay (luciferase), EC50 [1]: 0.11 nM
binding result (human IL-2R alpha (CD25) [2]): no binding (tested: 2000 nM)

B2: MDNA109FEAA^C125-Fc-MDNA132^L39/Q111 (Fc fusion)
chain: APTSSSTKKTQLQLEHLLLDLQMILNGINNYKNPKLTRMLTAKFYMPKKATELKHLQCLEEALKPLEEVLNLAQSKNFHFDPRDVVSNINVFVLELKGSETTFMCEYADETATIVEFLNRWITFCQSIISTLTGGGGSGGGGSGGGGS[sequence of human IgG1 Fc with changes not given]GGGSGGGGSGGGGSPGPVPPSTAHRELIEELVNITQNQKAPLCNGSMVWSINLTAGMYCAALESLINVSGCSAIEKTQRMLSGFCPHKVSAGQFSSLHVTGRKIEVAQFVKDLLLHLKKLFKEGQFN
Kd (human IL-13Rα2 [3]): 1.9 nM
Kd (human IL-2R beta (CD122) [4]): 8.01 nM

B3: H9T-Fc-MDNA132^L39/Q111 (Fc fusion)
IL-2 mutein (H9T) - Fc - IL-13 mutein (MDNA132) fusion chain: APTSSSTKKTQLQLEHLLLDLQMILNGINNYKNPKLTRMLTFKFYMPKKATELKHLQCLEEELKPLEEVLNLAQSKNFHFDPRDVVSNINVFVLELKGSETTFMCEYADETATIVEFLNRWITFCTSIISTLTGGGGSGGGGSGGGGS[sequence of human IgG1 Fc with changes not given]GGGSGGGGSGGGGSPGPVPPSTAHRELIEELVNITQNQKAPLCNGSMVWSINLTAGMYCAALESLINVSGCSAIEKTQRMLSGFCPHKVSAGQFSSLHVTGRKIEVAQFVKDLLLHLKKLFKEGQFN
notes: also called H9T-Fc-MDNA132 (2:1:2)
binding result (human IL-13Rα1 [5]): no binding (tested: 400 nM)
Kd (human IL-2R alpha (CD25) [6]): 18.3 nM
Kd (human IL-13Rα2 [7]): 1.88 nM
Kd (human IL-2R beta (CD122) [8]): 6.85 nM

B4: Mouse AntiCD3-MDNA132 (other)
heavy 1: EVQLVESGGGLVQPGKSLKLSCEASGFTFSGYGMHWVRQAPGRGLESVAYITSSSINIKYADAVKGRFTVSRDNAKNLLFLQMNILKSEDTAMYYCARFDWDKNYWGQGTMVTVSSASTKGPSVFPLAPSSKSTSGGTAALGCLVKDYFPEPVTVSWNSGALTSGVHTFPAVLQSSGLYSLSSVVTVPSSSLGTQTYICNVNHKPSNTKVDKKVEPKSCDKTHTCPPCPAPELLGGPSVFLFPPKPKDTLMISRTPEVTCVVVDVSHEDPEVKFNWYVDGVEVHNAKTKPREEQYASTYRVVSVLTVLHQDWLNGKEYKCKVSNKALPAPIEKTISKAKGQPREPQVYTLPPCRDELTKNQVSLWCLVKGFYPSDIAVEWESNGQPENNYKTTPPVLDSDGSFFLYSKLTVDKSRWQQGNVFSCSVMHEALHNHYTQKSLSLSPGGGGGSGGGGSGGGGSPGPVPPSTAHRELIEELVNITQNQKAPLCNGSMVWSINLTAGMYCAALESLINVSGCSAIEKTQRMLSGFCPHKVSAGQFSSLHVTGRKIEVAQFVKDLLLHLKKLFKEGQFN
heavy 2: EVQLVESGGGLVQPGKSLKLSCEASGFTFSGYGMHWVRQAPGRGLESVAYITSSSINIKYADAVKGRFTVSRDNAKNLLFLQMNILKSEDTAMYYCARFDWDKNYWGQGTMVTVSSASTKGPSVFPLAPSSKSTSGGTAALGCLVKDYFPEPVTVSWNSGALTSGVHTFPAVLQSSGLYSLSSVVTVPSSSLGTQTYICNVNHKPSNTKVDKKV[sequence of human IgG1 Fc with changes not given]
light: DIQMTQSPSSLPASLGDRVTINCQASQDISNYLNWYQQKPGKAPKLLIYYTNKLADGVPSRFSGSGSGRDSSFTISSLESEDIGSYYCQQYYNYPWTFGPGTKLEIKRTVAAPSVFIFPPSDEQLKSGTASVVCLLNNFYPREAKVQWKVDNALQSGNSQESVTEQDSKDSTYSLSSTLTLSKADYEKHKVYACEVTHQGLSSPVTKSFNRGEC
notes: also called mouse anti-CD3-MDNA132^L39/Q111 (1:1 KIH); mCD3-MDNA132 (KiH, 1:1)
Kd (human IL-13Rα2 [9]): 4.5 nM
binding result [10]: no binding
Kd [11]: 97.6 nM
binding result (human IL-13Rα1 [12]): no binding (tested: 2000 nM)
Kd (human IL-13Rα2 [13]): 3.71 nM
Kd [14]: 50.9 nM

B5: VivoTag800-MDNA19 (Fc fusion)
chain: APTSSSTKKTQLQLEHLLLDLQMILNGINNYKNPKLTRMLTAKFYMPKKATELKHLQCLEEALKPLEEVLNLAQSKNFHFDPRDVVSNINVFVLELKGSETTFMCEYADETATIVEFLNRWITFCQSIISTLTGGGGSGGGGSGGGGS[sequence of human IgG1 Fc with changes not given]
notes: also called VivoTag800 labelled MDNA19
binding result (human IL-2R alpha (CD25) [2]): no binding (tested: 2000 nM)
